# Source: PMC6212790
# Some of the results follow. At the low end of the ranking the order means little.
# Molecular target: T1, GST-Rok (full length) (UniProt O34857)
# T1 sequence: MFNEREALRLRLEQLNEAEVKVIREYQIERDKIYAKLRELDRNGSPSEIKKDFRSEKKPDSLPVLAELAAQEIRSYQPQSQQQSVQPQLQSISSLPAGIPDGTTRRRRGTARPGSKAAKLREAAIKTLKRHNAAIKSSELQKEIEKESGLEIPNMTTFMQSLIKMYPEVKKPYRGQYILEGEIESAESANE
# Experiment: protein binding microarray;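 note: rank score from −0.5 (least bound) to 0.5 (best bound)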
# Details: Rok is a gene silencer of Bacillus subtilis; high values mean tight binding; most listed sequences are background and not binding sites; double strand, one strand shown
row,Sequence,binding signal
1,GCTAGGAC,-0.24 E-score
2,TAATCCCA,-0.105 E-score
3,AGACGAAT,-0.0134 E-score
4,GCGTGTTA,0.0238 E-score
5,GAGGCGCA,-0.123 E-score
6,GCTCGTCA,-0.249 E-score
7,ACCGGAAG,-0.165 E-score
8,ACGTTACG,-0.104 E-score
9,CCAGATGC,-0.107 E-score
10,ATGTCCGC,-0.0274 E-score
11,AAGGGCAG,-0.266 E-score
12,CAGTTGAA,0.0294 E-score
13,AAATCATT,0.0987 E-score
14,ATATCCTG,-0.00854 E-score
15,GGCCTGCA,-0.221 E-score
16,ACGAAGTG,-0.0315 E-score
17,GCGCGTGA,-0.235 E-score
18,CAGATGGG,-0.0675 E-score
19,ACCCCGAT,-0.138 E-score
20,TCATATCA,0.132 E-score
21,ATGGGCTA,0.0395 E-score
22,ACGGTGTC,-0.262 E-score
23,GTAAGGGA,-0.124 E-score
24,CAGTACAC,0.0785 E-score
25,AGTGCGAA,-0.135 E-score

row,Sequence,binding signal
1,CGGCTCAG,-0.28 E-score
2,GAATAACA,0.0838 E-score
3,CCGGTGGC,-0.236 E-score
4,AACAACCG,-0.0593 E-score
5,ACGAACCG,-0.12 E-score
6,AAGCAACT,0.139 E-score
7,TATTTTAA,0.322 E-score
8,AAAGGGGT,-0.257 E-score
9,ACTGAGAA,0.0543 E-score
10,GGCCTTCA,-0.28 E-score
11,GATCTCGA,0.0395 E-score
12,ATCGGCTA,0.0346 E-score
13,ACCAAAGC,-0.15 E-score
14,ATACGACA,0.024 E-score
15,CCTGTTTA,-0.13 E-score
16,ACAATCGA,-0.0237 E-score
17,CTTCATAA,0.154 E-score
18,CCAGCAGA,-0.188 E-score
19,TAAGTGTA,0.246 E-score
20,CACAGAGA,-0.0186 E-score
21,CAATATTA,0.254 E-score
22,AATACTGG,0.169 E-score
23,ATCATCGC,0.0362 E-score
24,AACGAGTC,-0.0528 E-score
25,GATAGGCC,-0.142 E-score

row,Sequence,binding signal
1,ACCGTGAT,0.145 E-score
2,CCTGGCGC,-0.237 E-score
3,GATCTCCC,-0.295 E-score
4,AGCAATAA,0.0749 E-score
5,ACTCAATC,0.105 E-score
6,ATGTTTGA,0.124 E-score
7,GGTAAACC,0.00688 E-score
8,AGGCGCAA,-0.126 E-score
9,AAGCGAGT,-0.0204 E-score
10,CGAGACGA,-0.0245 E-score
11,ATCACTAC,0.0844 E-score
12,AGCAGAAA,0.0612 E-score
13,CTGCAACA,-0.0642 E-score
14,GAATCTCC,0.00693 E-score
15,CAGGCGGG,-0.394 E-score
16,AGTACAAC,0.0971 E-score
17,ACGTGAGG,-0.0871 E-score
18,TTAGGGAA,-0.126 E-score
19,AGTGTTCG,0.00932 E-score
20,CTTCCTCC,-0.344 E-score
21,CCAGTACC,-0.0547 E-score
22,ACGCGTGC,-0.0951 E-score
23,AGCTCGCG,-0.123 E-score
24,CCGTAAAA,0.0965 E-score
25,GCCGCGCC,-0.283 E-score

row,Sequence,binding signal
1,ACCATTAA,0.0746 E-score
2,CTTATGTC,-0.104 E-score
3,AAGGGAGT,-0.131 E-score
4,GGCACTCA,-0.0412 E-score
5,ATGAGACC,-0.0922 E-score
6,AAAGCAAT,0.137 E-score
7,GCACTGGC,-0.154 E-score
8,AATCGATC,0.111 E-score
9,ATTGGAAG,0.0354 E-score
10,ACCACTAT,0.112 E-score
11,GTATCAGA,0.102 E-score
12,GATACCAA,0.13 E-score
13,AACAGTAT,0.262 E-score
14,ACAGCTGC,-0.187 E-score
15,GGATATAC,0.317 E-score
16,CGGTATGC,-0.164 E-score
17,AGTGTGTA,0.126 E-score
18,AATTACGG,0.212 E-score
19,CGCGGTAG,0.00808 E-score
20,AGATCCCT,0.0126 E-score
21,CCTAACAC,-0.0857 E-score
22,ATGGAGGA,-0.151 E-score
23,CGGGAGAG,-0.197 E-score
24,CGTATAAC,0.138 E-score
25,ACTCAAAT,0.115 E-score

row,Sequence,binding signal
1,ACCGCGCC,-0.253 E-score
2,GGAACAAC,-0.0535 E-score
3,CTATTCTA,0.128 E-score
4,GACGTCGA,-0.154 E-score
5,AACGCTTC,-0.265 E-score
6,AAACGGTG,0.0437 E-score
7,ATCACGCG,0.0547 E-score
8,ACAGCTAG,-0.00513 E-score
9,GAATGATA,0.304 E-score
10,ATGAGATA,0.346 E-score
11,AGACGACC,-0.246 E-score
12,CCTATGTC,0.113 E-score
13,GATAGGTA,0.26 E-score
14,AGTCTAGG,-0.237 E-score
15,GTGGTCAA,-0.0982 E-score
16,AGAACGGA,-0.066 E-score
17,TTGCAAAA,-0.0231 E-score
18,AGAGACGA,-0.259 E-score
19,AAACTTGG,-0.0876 E-score
20,CATTGCTA,0.114 E-score
21,CAGGACTG,-0.179 E-score
22,CGAGGTAG,0.203 E-score
23,CTGAACAG,-0.148 E-score
24,AATACAGC,0.111 E-score
25,GCGTCAGC,-0.303 E-score

row,Sequence,binding signal
1,CTTGCGAC,-0.22 E-score
2,GTATATAC,0.432 E-score
3,TCAAAAGA,-0.192 E-score
4,TCGGAAGA,-0.11 E-score
5,CCGGGAAG,-0.191 E-score
6,ATTCGACA,0.0568 E-score
7,GGGATGAC,-0.0151 E-score
8,CATCTGTC,-0.261 E-score
9,GAGGACCC,-0.225 E-score
10,AGAGCCCC,-0.351 E-score
11,AGCGAAGC,-0.219 E-score
12,GGCTCTGA,-0.197 E-score
13,GGTTAGGA,-0.222 E-score
14,ACCGATGA,-0.00751 E-score
15,AGGGTAAG,-0.147 E-score
16,AAATCCCG,-0.0458 E-score
17,CTTTGGAA,-0.132 E-score
18,CGAAGACG,-0.254 E-score
19,AAAAGCGG,-0.0651 E-score
20,GGGTCACC,-0.319 E-score
21,TACGCGGA,0.135 E-score
22,TACTACGA,0.275 E-score
23,ATAAGGCG,-0.0829 E-score
24,ACGAAGTC,-0.00561 E-score
25,AACGCATG,-0.00479 E-score

row,Sequence,binding signal
1,GGAGCAGA,-0.132 E-score
2,AGATTGTA,0.285 E-score
3,CATTGAGA,-0.0127 E-score
4,AGAGACAG,-0.115 E-score
5,GCATAACC,0.0212 E-score
6,CCCTGGTC,-0.264 E-score
7,AAGAGCTG,-0.0926 E-score
8,ATTTTGGC,-0.0022 E-score
9,AGATCGTC,-0.0656 E-score
10,AGCGCCAT,-0.082 E-score
11,ACTGCACC,0.131 E-score
12,TTATGAAA,0.162 E-score
13,CTTAATCC,-0.0703 E-score
14,CACACAGG,-0.201 E-score
15,CAGCGACA,0.0869 E-score
16,CCGCGGGC,-0.359 E-score
17,GCACAATA,0.247 E-score
18,CCCCGTAG,-0.245 E-score
19,ATACCTGG,0.0327 E-score
20,CCCGCTCG,-0.254 E-score
21,AGCTAATC,0.162 E-score
22,TACGAGTA,0.098 E-score
